Results as given in the supplement of paper PMC3334620.
Over roughly 33,000 sequences, “E-score (-0.5 to 0.5)” has its median near -0.056; the highest 2% begin near 0.38. Some of the results follow.

target: Stb4 (UniProt P50104); assay: PBM E-score (8-mer binding enrichment) (E-score (-0.5 to 0.5)); higher = stronger / more preferred TF binding; most listed sequences are background and not binding sites; settings: protein concentration: 200 nM; construct: GST-DNA-binding domain
Procedure, shortened: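 Bound GST-tagged yeast transcription factors, applied at about 100-200 nM to double-stranded universal all-10-mer Agilent arrays, were detected with fluorescent anti-GST. Scans were normalised with masliner. A modified Wilcoxon-Mann-Whitney statistic, the E-score, was assigned to each ungapped eight-base word pooled with its reverse complement by the Universal PBM Analysis Suite.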

Sequence | PBM E-score
ACGTCCGG | 0.157
AAGCGAGA | 0.0626
ACCTCGGA | 0.463
GACCCGGC | 0.268
GCGGCACA | 0.121
GGTTCGGA | 0.442
CACGTTGA | -0.178
TCTACAGA | -0.0349
ATGAGCGA | -0.03
AGCAAACG | -0.0254
ATTTAACC | 0.224
GTTTAGCA | -0.0138
ACCTAAGG | -0.199
ATGGGATG | -0.0874
CTGGCACA | -0.261
ATTTTCGC | -0.0335
GCGTAGTA | -0.15
AATAGCAC | -0.205
CAAATGAC | -0.15
GCCAGGCC | 0.00566
AACTCAAC | -0.0617
GTCATCAA | -0.124
CGCGTATA | -0.11
CGGATTAA | 0.381
AGGGGCAC | -0.119

Sequence | PBM E-score
GTCCGAAC | 0.335
CACAAACG | 0.132
CCGTGGAC | 0.131
CGGGATAA | 0.343
AGTTCAGG | -0.28
AGTGGACA | -0.111
ATCTAGCG | -0.126
CCTTTGGC | -0.165
CGAATTTC | 0.258
CACTAGAA | 0.0142
CACCTCCG | 0.191
AACAACTA | -0.0473
TCCAGCGA | -0.194
CGAGGAGC | 0.0986
GCAACTAC | 0.0214
GTTACCGA | 0.366
CTCTATGC | -0.201
CACGACTA | -0.269
GCTAGCCA | -0.11
TAGAACAA | -0.0766
CACGGGCC | 0.189
CTGAACCC | -0.0606
CCAACGAA | -0.0652
GAAGTTCC | 0.197
GTACTCCA | -0.133

Sequence | PBM E-score
GAATTCTA | 0.0276
GCGACAAC | -0.119
AAGTAACC | -0.0685
GCCTAATA | -0.0764
ATGCGTCA | -0.145
CCTCATTC | -0.214
TAGACCGA | 0.152
CTATAAAA | 0.00169
ATCGTATG | -0.302
CCGGCGGC | 0.282
CACGACAC | -0.0595
CCACAAGA | -0.144
GGATAAAA | 0.307
ATAGCATG | -0.0881
AGACACAC | -0.16
CGAACCCC | 0.232
ATGTTGTC | -0.0925
AGGTGCGC | -0.119
ATAGCCCC | -0.092
GCCAAGCA | -0.175
CAGATCAA | -0.22
CCATCAAA | -0.188
GTATCATA | -0.0852
AAGCCTTC | -0.0191
CTGGACTC | -0.175

Sequence | PBM E-score
ACGTCAGA | -0.294
CGGTGAAG | -0.0865
CCTTCCCA | -0.066
AGTGGGAT | -0.0287
AAGACCCA | -0.0993
AAATAACA | 0.104
GCACACGC | -0.143
CTAATACA | -0.142
GATACGGC | 0.068
TAATCTAA | 0.0146
CCAGAAGC | 0.0876
CGTTGGTC | 0.0494
CCTTTCGC | -0.0474
ACTCCTAT | -0.146
CACCGTAG | -0.0514
CGCCCGCG | 0.137
CGGGTACA | 0.378
CCATCTCA | -0.273
CAAGTCGC | -0.303
ACGAGCAC | -0.133
ACCTTCAA | -0.0963
AGAAATTG | 0.0528
CCATCGCA | -0.229
GGCCTATA | -0.0356
CTACTCTC | -0.0273

Sequence | PBM E-score
ATACGCTC | -0.0477
AGTGCGGC | 0.124
AATTTTAG | -0.193
AAACTAGC | -0.08
GGATAAAC | 0.272
AATACATA | -0.00111
AACGGGCG | -0.0573
GGTTACAA | 0.0866
AACCTGCA | -0.23
AAAGCACA | -0.178
AAGAAATC | -0.17
CGCAGGTC | -0.0281
CCCCGTGA | -0.096
GAGAATAA | 0.0577
AGAGCGAA | -0.134
GCTCATGA | -0.0848
GAGGGGTA | 0.0739
CATTAGAC | -0.184
TATAAATA | 0.0782
GGGTTTAC | 0.0341
ATACCTAA | -0.241
ATACGCCG | 0.177
AGCGAGTA | 0.12
AGTGCCAA | -0.29
GGATGGCC | 0.00847

Sequence | PBM E-score
CTGAGACC | -0.0773
ACTGGCAC | -0.123
GATCTCAA | -0.00656
TCATCGCA | -0.25
ACTAGCCC | -0.0544
AGAGGCAG | -0.139
AGCACGTG | -0.125
AGGGAGTG | -0.281
AATAGTGA | -0.009
CCTCATAG | -0.165
AACTGTAT | -0.0253
GCTAGTAC | -0.0967
CCAGGAAG | -0.176
CGGCTACC | 0.31
AATGCGTC | -0.226
ACGGGAAG | 0.232
GTTCCTTA | 0.0117
CAGAGTAA | -0.113
CAGAGATA | -0.182
CTGGCTCC | -0.168
AGAGCCTC | -0.246
ACAGCCAT | -0.243
AATGGGGG | -0.246
AGTTCGAT | -0.25
AAGAAAGC | -0.0269

Sequence | PBM E-score
AACTCCGT | 0.206
TATCCTCA | -0.0131
AGGCAACT | 0.0729
AACGAAAT | 0.102
AAGGGACC | -0.0643
ACGGTAAG | 0.105
GCGGGTAC | 0.222
ACAACACA | -0.242
CAACCGAA | 0.289
AGAATGGC | -0.0824
AGGTCGCA | -0.0675
GTTTCAAA | -0.0833
AGGAGGGA | -0.146
AGATAAAT | -0.0431
GACACCAC | 0.0163
AATGTAGC | -0.113
ACATACTC | -0.0299
ACGGCAGC | 0.15
CGTAGTGA | -0.114
ACAGAGAT | -0.171
CACGCACG | 0.0233
ATTTTGCC | 0.065
